Read counts are not given, so values of variants with three or more changes are uncertain.
B1: CPEB3 Ribozyme (parent)
chain: UAACAGGGGGCCACAGCAGAAGCGUUCACGUCGCAGCCCCUGUCAGAUUCUGGUGAAUCUGCGAAUUCUGCUGUAUAUCUC

Variants of: B1
Test: self-cleavage, relative activity (ratio to wild type); higher = more cleavage; in vitro, sequencing
How it was run: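 Relative activity compares each variant's cleaved/total read fraction with that of the unmutated ribozyme. To get these fractions, barcoded CPEB3 ribozyme libraries from rounds of error-prone PCR were transcribed with T7 RNA polymerase for 5 hours at 37°C and then given 15 min of DNase I treatment before EDTA was added. The RNAs were reverse transcribed with template switching and sequenced on Illumina, and DNA sequencing linked barcodes to variants. A minimum of 5 reads applied, and three batches were averaged.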

| Variant | self-cleavage |
| --- | --- |
| U25C A35G U60C | 0.06 |
| U25C A35C C39A A45G | 0.17 |
| C23U C32A U51A | 0.21 |
| U25C A77G C81A | 0.18 |
| U25A U41C U72A | 0.07 |
| G24A U41C U67C | 0.28 |
| G24A U31G C40A A57G A64U | 0.06 |
| C23U A28G A35G U51C U72C | 0.13 |
| G24A U41G U60C U69C | 0.1 |
| U25A U26C U72C | 0.1 |
| G24A U31C A56G C59A | 0.12 |
| U25C A47G A65G | 0.24 |
| U25C C40U A45U U51C A65G | 0.09 |
| U25A C32A U41C A57U C79U | 0.06 |
| U25C G33C A35G U72C | 0.2 |
| U25A U26G U31A U51C U54C | 0.1 |
| U25C C39U U72C U80C | 0.1 |
| U25C A56C C59A | 0.13 |
| G24A C38A U51C U54C | 0.14 |
| U25A U48C A56G U67C U72C | 0.36 |
| G24A G30C A47G C50A A56U U76C | 0.04 |
| U25C A56G A77G | 0.19 |
| U25C U31C A35G U41A U43C | 0.09 |
| G24A A28G C81A | 0.19 |

| Variant | self-cleavage |
| --- | --- |
| U25C C38U U74A | 0.61 |
| U25C G55U U78G | 0.08 |
| G24A U25C U74C C81G | 0.21 |
| U25C G33A U60A U67C U80A | 0.08 |
| G24A A56G U72G | 0.14 |
| C23U A47G A65G | 0.07 |
| G24A U26A A64C U72C U74A | 0.05 |
| U25A U43C U66C | 0.24 |
| G24A A57U U78C | 0.18 |
| U25C U26C C32U U43A U58A | 0.37 |
| U25C U26C A35U | 0.25 |
| U25C A56U U80C C81U | 0.06 |
| U25A A45U A56U A64U | 0.11 |
| U25C A28U A45G | 0.24 |
| U25C C29U A35U A47U A65G U74C | 0.07 |
| U25C C27U U51A A57U U80A | 0.04 |
| C23G U41C U51C A56G U76C | 0.24 |
| U25A U41A U51C U74C | 0.24 |
| U25A U26A U43C A45G U66G U74C | 0.17 |
| U25C C27U U58C U66C | 0.27 |
| G24A A28G U41A | 0.13 |
| U25A A47G U74A A75U | 0.17 |
| U25A U31A U54C U58A | 0.09 |
| U25C U31C A47G A64G | 0.07 |

| Variant | self-cleavage |
| --- | --- |
| U25C U26C U43C A56U C59U A64U U80C | 0.08 |
| U25C U31A U41C U72A | 0.06 |
| C23U G30A A35C A57G | 0.09 |
| U25A A28G C40A U51A A56U U66C U78C | 0.04 |
| C23U A28G U66C U78A | 0.03 |
| U25C C32A A35U U49C U80A | 0.14 |
| U25A A47G U72A | 0.19 |
| G24A A65G U69A | 0.13 |
| U25C A28G U31C U41C U74G A77G | 0.21 |
| U25C A35G U66C | 0.14 |
| U25C A35U A47G A57C U76A | 0.16 |
| U25A A28G A56G U60A | 0.2 |
| C23U U26C U31C A35G C40A A47G | 0.09 |
| U25C G61A U72G | 0.09 |
| U25C C27U U43C | 0.16 |
| U25C A56G A57G | 0.25 |
| U25C U26C U49C U51A C59U | 0.21 |
| G24A A75U U78C | 0.06 |
| U25C A45G U74C | 0.21 |
| C23U U43C U48C U72C U74C | 0.06 |
| U25C A28U U78A | 0.19 |
| C23U U67C A77U | 0.13 |
| G24A U25C U51A | 0.22 |
| U25C C38U A77U | 0.13 |

| Variant | self-cleavage |
| --- | --- |
| G24U A65G U80G | 0.37 |
| G24A U41C A64U U66C U69A | 0.13 |
| C23U U26C U58A A75U U80C C81U | 0.07 |
| U25A C29U A57G U72A | 0.31 |
| U25C A28C A65G | 0.15 |
| U25A A35G A47G U67A U74A A75U | 0.05 |
| U25A U26G U80C | 0.48 |
| U25A C38G U48A U51A | 0.06 |
| U25C A28G C34U | 0.37 |
| G24A U31A A47U U58C U60C A64G C81U | 0.06 |
| G24U A45G U80C | 0.65 |
| U25C G33A A35G U54C | 0.06 |
| U25A U41A U54C | 0.21 |
| U25C A45G A65G | 0.14 |
| U25C A45G A77G | 0.43 |
| C23U A35G U72A U78C | 0.68 |
| U25A U41C A56G U67C | 0.1 |
| U25C A35U U49A | 0.24 |
| U25C A45U A56G | 0.07 |
| U25C U26A U72C | 0.24 |
| U25C A28U A35U C71A | 0.13 |
| U25C A45G G70C U76A | 0.2 |
| G24A A28U C44U U67C | 0.12 |
| U25C A47G U54C C62U A64U | 0.16 |

| Variant | self-cleavage |
| --- | --- |
| U25C A56G G70A | 0.42 |
| U25C A45G U69A U80C | 0.18 |
| G24A U60G C71A | 0.37 |
| U25A A45U A77G U80C | 0.07 |
| U25C C32A C38U U66A U78A | 0.12 |
| U25C A35U U60A | 0.14 |
| U25C A45U A47G U72C U80C | 0.08 |
| U25C A35G U58A C62U | 0.13 |
| C23G U41C A57G | 0.15 |
| U25C U31A U41C | 0.28 |
| U25A A35G U41C U43A U54C A56G | 0.14 |
| G24C U31C A77G | 0.18 |
| U25C G63C U78C | 0.19 |
| U25C U26C U31A A64U | 0.2 |
| U25C A28U U31C A45C | 0.19 |
| G24A U25A U58A U80C | 0.17 |
| U25C G53U U80C | 0.36 |
| G24A U41A G42C U74C A75G | 0.05 |
| G24A U69C U72A | 0.1 |
| U25C A65G U74C U80C | 0.31 |
| U25A A64U U72G U78C | 0.14 |
| U25C A57G U72C C79A | 0.07 |
| U25C C29U A35U U51C A57G | 0.1 |
| G24A U31A A35U A65G | 0.11 |

| Variant | self-cleavage |
| --- | --- |
| G24C U41A U60A U74A | 0.21 |
| C23U G24A U25C U31C A35U U41C A56G | 0.06 |
| U25A U31C U74G | 0.33 |
| U25A C32U U51A G52C A64G | 0.06 |
| C23U U26A U49A U58G U76A | 0.11 |
| U25C A28G U80A | 0.15 |
| U25A U31G A35G G42A A45U U48C U60C | 0.05 |
| U25C U26C U69C | 0.18 |
| U25C A28G A35G A45G C68U | 0.22 |
| U25C A45G A64G | 0 |
| U25A A35C A57U | 0.13 |
| G24A U74G U78A | 0.17 |
| U25A U54C U78C | 0.39 |
| G24U U43C A56U U80C | 0.1 |
| U25C G33A U66G | 0.18 |
| U25C A28U U54A | 0.1 |
| U25C U26A U51A | 0.25 |
| U25C A47G U49C U60C A64G U80A | 0.07 |
| U25A U26C A35U A45G G53A | 0.17 |
| U25C A35G U72C | 0.35 |
| U25C A45G U49C U69C | 0.09 |
| G24U C38G A45U | 0.09 |
| U25C U26C C32U U41C U51C U54C C62U | 0.05 |
| U25A C38A U51A A64U | 0.04 |

| Variant | self-cleavage |
| --- | --- |
| U25C U31C G33U | 0.35 |
| U25C U26A A35U C40U | 0.58 |
| G24A C40A U48C A57G U60A | 0.12 |
| U25C A35G U48C U66C | 0.15 |
| C23U U31A A57G | 0.09 |
| G24C U48C A57G U67C | 0.15 |
| U25C G36U A45G U48C | 0.15 |
| C23U U26G A28G | 0.08 |
| C23U U43C U66C U74C | 0.11 |
| U25C A45U U54A U69A | 0.11 |
| U25A U49A U80C | 0.2 |
| G24A A47G U49A C50U U80C | 0.16 |
| G24A U25C A35U | 0.2 |
| U25C A35G U43C A56G U67C U80C | 0.15 |
| U25A A35G U51A U60C U69A U80G | 0.06 |
| G24A G33U U69C U72G | 0.06 |
| U25C U26A A45G U49C U51A U60C U69C | 0.04 |
| C23U A47G A75G | 0.15 |
| G24A A28G U31C C38U A57G U76C | 0.07 |
| C23U A45G G73C | 0.35 |
| U25C C27U U49A A64G | 0.2 |
| U25C U26C U80A | 0.26 |
| U25C A45G A47G A65U | 0.09 |
